About 450 (0.94%) of roughly 48,000 compounds were called active. Inconclusive results (about 19%) are left out. Calls follow the shape of the dose curve; as a rule, active = well fitted inhibition curve with a large enough effect; inconclusive = small, poorly fitted or top-dose-only effect; inactive = no such curve, though single readings can be large or run the other way. This is one part of the list.
Test: Primary qHTS for Identification of Small Molecule Inhibitors of Huntingtin Promoter Activity; also: nearly all actives have a fitted effect of over 50% in size
Settings: HEK293 HTT promoter firefly luciferase reporter (activity 0% = vehicle and -100% = no light), 24 h; series mostly up to 57.5 µM; activity change, negative = inhibition: at the top concentration
Summary of the method: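 Firefly luciferase readout (Dual-Glo, 10 min RT) after 24 h, 37 °C compound exposure (final up to 57.5 uM) of HEK293 reporter cells cultured 24 h beforehand; PTC124 at 50 uM final as control inhibitor; activity scaled vehicle 0%, zero RLU -100%.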

Activity change, negative = inhibition, inactive:
CCOc1ccccc1CNC(=O)CCc1cn(C)c2ccccc12 -26.3%
CC(=O)Nc1ccc(S(=O)(=O)NC2(C(F)(F)F)C(=O)Nc3c2c(=O)[nH]c(=O)n3-c2ccc(C)cc2)cc1 (stereo unspecified) -10.6% [at 11.5 µM]
CCOCCCNC(=O)C(c1ccc(OC)cc1)N(Cc1cccs1)C(=O)CNC(C)=O (stereo unspecified) -14.3%
CCOC(=O)c1cc2c(=O)n3ccccc3nc2n(CCCOC)c1=NC(=O)c1cc2ccccc2o1 -5.3%
COc1ccc(NC(=O)Cn2c(=O)n(Cc3ccccc3Cl)c(=O)c3cc(OC)c(OC)cc32)cc1 -7.25%
COc1cccc(-n2c(C)nc3c(cnn3-c3ccc(C)c(C)c3)c2=O)c1 -15.2%
O=c1oc2ccc(Cl)cc2cc1-c1nc(-c2cccs2)no1 1.07%
CCOc1cc2[nH]c(=O)n(CCC(=O)N3CCN(c4ccccc4)CC3)c(=O)c2cc1OCC -19%
Cc1ccc(-n2nc3c(N4CCCC(C(=O)NCc5ccccc5C)C4)nnc(C)c3c2C)cc1 (stereo unspecified) -4.66%
Cn1c(=O)n(C)c2cc(CNCc3ccccc3Cl)ccc21 -3.98%
COc1cccc(C(=O)NCc2cn3cccc(C)c3n2)c1 1.78%
CCCn1c(=N)c(C(=O)NC(C)c2ccccc2)cc2c(=O)n3ccccc3nc21 (stereo unspecified) -10.6%
O=C(c1ccc(Cl)cc1)n1nc(-c2ccccc2)nc1NCc1ccco1 19.7%
Cc1ccc2scc(N3CCCC(C)C3)c(=O)c2c1 (stereo unspecified) 20%
CCOc1ccc(NC(=O)c2nn(C)c3c2COc2ccccc2-3)cc1 5.21%
COc1ccc2c(c1)c1c(c(=O)n(-c3cc(Cl)ccc3C)c(=O)n1Cc1ccc(F)cc1)n2C -13.1%
Cc1c(Cl)cccc1-n1ncc(C(=O)NC2CCCC2)c1C1CCN(C(=O)OC(C)(C)C)CC1 -18.6%
Cc1ccc(NC(=O)N2CCN3CCCCC3C2)cc1C (stereo unspecified) 1.62%
C=CC(=O)Nc1cccc(Sc2nc(Nc3ccc(N4CCN(C)CC4)cc3)ncc2Cl)c1 -16.2%
COc1ccccc1C(=O)OCc1cc(=O)n2c(C)csc2n1 58.6%
CCSc1ncc(Cl)c(C(=O)Nc2cc(C)ccc2C)n1 -7.92%
CC(=O)c1c(C)n(-c2cccc(Cl)c2)c2ccc(OC(=O)c3ccccc3)cc12 -6.85%
CCCOC(=O)c1c(-c2ccccc2)c(-c2ccccc2)nn(C)c1=O 27.2%
COc1ccc(-c2[nH]c(-c3ccc(C)cc3)nc2SCC(=O)NCC2CCCO2)cc1 (stereo unspecified) -15.7%
CC1=NS(=O)(=O)c2cc(Cl)ccc2N1 9.13%
COc1cccc(NC(=O)CSc2nc(=O)[nH]c3c2CCCC3)c1 -35.7%
CCOc1ccc(-c2cc3nc(C4CCN(C(=O)OC(C)(C)C)CC4)c(C(=O)Nc4cccc(C(F)(F)F)c4)cn3n2)cc1 -18.3%
c1ccc2c(c1)CCc1ccccc1N2 9.92%
Cc1cc2c(cc1S(=O)(=O)CCC(=O)N1CCN(c3ccccc3)CC1)OCC(=O)N2 -19.1%
CCS(=O)(=O)N1CC(=O)N(c2cc(Cl)ccc2C)C(C)(C(=O)NC2CCCCCC2)C1 (stereo unspecified) 6.71%
CCCCCOC(=O)CSc1nc2sc3c(c2c(=O)n1Cc1ccccc1)CC(C)(CC)OC3 (stereo unspecified) -12.6%
CN1C(=O)C[C@H](C(=O)N[C@@H](Cc2cnc[nH]2)C(=O)N2CCC[C@@H]2C(N)=O)NC1=O 9.02%
COc1cc(Cl)c(NS(=O)(=O)c2cc3[nH]c(=O)c(=O)[nH]c3cc2C)c(OC)c1 5.65%
COc1cccc(C(=O)NC2=NC(c3ccccc3F)CC(=O)N2)c1 (stereo unspecified) -14.3%
Cc1ccc(-n2c(=O)c3c4c(sc3n(CC(=O)C(C)(C)C)c2=O)CCCCC4)cc1C -5.58%
COC1=C(OC)C(=O)C(CC=C(C)CCC=C(C)CCC=C(C)CCC=C(C)CCC=C(C)CCC=C(C)CCC=C(C)CCC=C(C)CCC=C(C)CCC=C(C)C)=C(C)C1=O -5.24%
COC(=O)c1ccc(NC(=O)c2c(-c3ccccc3)c(-c3ccccc3)nn(C)c2=O)cc1 2.24%
CCCN(C(=O)c1cc2c(s1)-c1ccccc1OC2)c1ccc(C(C)C)cc1 -0.889%
Cc1cccc(OC(=O)c2snnc2C)c1C -15.8%
CCc1ccc(Nc2nc(-c3cc4cccc(OC)c4oc3=O)c(CC)s2)cc1 2.38%
Cc1ccc(NC(=O)C2CCC(CNS(=O)(=O)c3cccs3)CC2)cc1C (stereo unspecified) -26.3%
CCOC(=O)C1CCN(C(=O)c2ccc(C)c(NC(=O)c3nsc4ccccc34)c2)CC1 -23.5%
CCC(=O)N1c2ccc(S(=O)(=O)CCC(=O)NCc3ccc(OC)cc3)cc2CC1C (stereo unspecified) -17.2%
CCc1cccc(C)c1Nc1c(-c2cccs2)nc2ncccn12 -20.1%
Cc1cc(C)c(NC(=O)CCN2CCCCC2)c(C)c1 0.466%
O=C(Cn1c(=O)c2ccccc2n(CC(=O)Nc2ccccc2F)c1=O)NCCc1ccccc1 -0.503%
O=C(Nc1ccc(F)c(F)c1)c1ccc(=O)n(Cc2ccc(F)cc2)c1 -25.7%
COc1ccc(NC(=O)COCc2cc(-c3ccco3)on2)cc1Cl -12.1%
CC(C)c1ccc(S(=O)(=O)NCc2nc3cccnc3n2Cc2ccc(F)cc2)cc1 -13%
CC1=C(C(=O)Nc2cc(C)cc(C)c2)C2(CCCCC2)OC1=O -22%
CCc1ccc(-n2c(=O)c3sc4ccccc4c3n(CC(=O)NC3CCCC3)c2=O)cc1 -5.46%
COc1cc(OC)c(NC(=O)CCc2nc(C3=CCN(Cc4cccc(Cl)c4)CC3)no2)cc1Cl 18.2%
Cc1nc2nc(CNC(=O)OC(C)(C)C)nn2c(C)c1CCC(=O)NCc1ccccc1Cl -26.4%
Nc1nc(N)c(S(=O)(=O)c2ccccc2)c(Nc2ccccc2)n1 -14.1%
COc1cccc(C2C(=O)N(C3CCCCC3)CC(=O)N2CCc2ccc(OC)c(OC)c2)c1 (stereo unspecified) -10.8%
COc1ccc(-c2cc(C(=O)Oc3ccc(Br)cc3)c3ccccc3n2)cc1 18.1%
Cc1ccc(NC(=O)c2oc3ccccc3c2NC(=O)C2CCCCC2)cc1 -9.55%
Fc1ccc(CNc2nc3c(-c4ccc(F)cc4)nnn3c3ccccc23)cc1 -8.6%
COc1cc(C(=O)NCc2ccc3c(c2)CCN3C(=O)c2ccncc2)cc(OC)c1OC -8.92%
Cc1ccc(NC(=O)NCCc2c(C)nn(C)c2C)c(Cl)c1 0%
COc1ccc(-c2noc(CSCC(=O)Nc3ccc(C)cc3Br)n2)cc1OC -16.2%
COc1cccc(/C=C/c2nc(C#N)c(N(C)Cc3ccccc3)o2)c1 -13%
COCCCNC(=O)CN1C(=O)c2c(c3ccccc3n2C)C1c1ccc(OC)cc1 (stereo unspecified) -20.6%
CCCCSc1ncnc2c1sc1nc(N3CCOCC3)c3c(c12)CCCC3 -5.93%
CC1=C(C(=O)Nc2ccc(C)cc2)C(c2ccccc2Cl)n2nnnc2N1 (stereo unspecified) -3.79%
CCOc1ccc(CNC(=O)COc2cc(=O)n(C)c3ccccc23)cc1 11.3%
Cc1cccc2c1-c1sc(C(=O)NCc3ccccc3Cl)cc1CO2 -17.9%
CCC(=O)N1CCc2cc(Br)cc(S(=O)(=O)CCC(=O)NCc3ccccc3)c21 -10.7%
COc1cccc(NC(=O)c2cc(CN3CCOCC3)on2)c1 35.9%
COc1ccccc1CNC(=O)c1c2c(nc3ccccc13)C(=O)N(C1CCCCC1)C2 -4.44%
CCCCCCCCCCCCCCCC[N+](C)(C)Cc1ccccc1 -20.7%
CSc1cccc(NC(=O)CN(C)S(=O)(=O)c2ccc3c(c2)n(C)c(=O)c(=O)n3C)c1 -23%
Cc1nn2c(=O)cc(COC(=O)c3ccc(C(C)(C)C)cc3)nc2s1 -13.4%
O=c1ccc2cc(S(=O)(=O)N3CCCC3)ccc2[nH]1 -16%
O=C(Nc1c(C(=O)N2CCN(c3ccc(F)cc3)CC2)oc2ccccc12)c1ccco1 -21.8%
CCOC(=O)C1CCCN(CCC(=O)Nc2ccc(OC)cc2OC)C1 (stereo unspecified) 0.392%
COc1cccc(N2CCN(S(=O)(=O)c3ccc(-c4cnc(C5CC5)o4)cc3)CC2)c1 -21.9%
O=C(CSc1nc2ccccc2n1Cc1ccc(F)c(Cl)c1)N1CCN(c2ccc(F)cc2)CC1 -15.4%
Cc1cccc(-n2ccnc2SCC(=O)Nc2ccccc2C(F)(F)F)c1 -9.37%
CCn1cc(C(=O)NCCc2ccccc2)c(=O)c2cc(S(=O)(=O)N3CCOCC3)ccc21 -14.7%
COc1ccc(CNC(=O)CCc2c(C)nc3c(c2C)c(=O)n(C)c(=O)n3C)cc1 -0.738%
CCCc1nn2c(=O)cc(COC(=O)c3ccc(NC(=O)c4cccs4)cc3)nc2s1 -23.9%
CCc1ccc(NC(=O)CSC2=Nc3ccccc3C3=NC(CCC(=O)NCc4cccs4)C(=O)N23)cc1 (stereo unspecified) -1.63%
Cc1ccc(Cn2c(C)c(CNC3CCCCC3)c(C(=O)O)c2C)cc1 -14.5%
CCC(=O)N1CCc2cc(S(=O)(=O)NC(C(=O)NCc3ccc(OC)cc3)C(C)C)ccc21 (stereo unspecified) -16.3%
COc1cccc(N2C(=O)CSC23C(=O)N(CC(=O)Nc2cc(C)ccc2C)c2ccccc23)c1 (stereo unspecified) -13.2%
COc1ccc(OC)c(CCNC(=O)CCCc2nnc3n(C)c(=O)c4sccc4n23)c1 -4.1%
COC(=O)c1ccc(NC(=O)c2nn(C)c3c2CS(=O)(=O)c2ccccc2-3)cc1 0.897%
CC1CCN(S(=O)(=O)c2ccc3nc(-c4cccnc4)cc(C(=O)NCCCOC(C)C)c3c2)CC1 -3.27%
Cc1ccc(Cl)cc1NC(=O)c1oc2ccc(S(=O)(=O)N3CCC4(CC3)OCCO4)cc2c1C -7.16%
COc1ccc(C)cc1NC(=O)CN1CCN(CC(=O)Nc2ccccc2F)CC1 -15.6%
Cc1ccc2sc(N3CCN(C(=O)C4COc5ccccc5O4)CC3)nc2c1C (stereo unspecified) -29.5%
COc1ccc(NC(=O)Nc2cn(CC(C)C)c(=O)c3ccccc23)c(OC)c1 -15.1%
COc1ccc(-c2cc(-c3ccccc3)nc3c2COc2ccc(Cl)cc2-3)cc1 -8.67%
Cc1oc2ncn(C)c(=O)c2c1C(=O)N(C)c1ccccc1F 0%
CCN1C(=O)C(O)(c2c(C)[nH]c3ccccc23)c2ccccc21 (stereo unspecified) -7.47%

From PubChem BioAssay AID1508623 (National Center for Advancing Translational Sciences (NCATS), 2021)
